From PMC9911399, “Two distinct binding modes provide the RNA-binding protein RbFox with extraordinary sequence specificity”
Changes are numbered by the printed parent chain; changes in the protein carry UniProt numbers. The list shows a part of the results.

T1: RBFOX1 RRM (Homo sapiens, UniProt Q9NWB1 109-208)
T1 sequence: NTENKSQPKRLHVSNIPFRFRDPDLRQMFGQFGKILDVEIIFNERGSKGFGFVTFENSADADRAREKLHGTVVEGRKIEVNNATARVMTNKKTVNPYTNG

B1: ACGACCA (DNA:RNA)
RNA: GGGAGACCGGAAUUCAGAUUGUCCACGACCAUUAAAUCCCGUCGUAGCCACCA
DNA 1: CAATCTGAATTCCGGTCTCCC
DNA 2: TGGTGGCTACGACGGGATT
B2: GCUCCGG (DNA:RNA)
RNA: B1 RNA with A25G, G27U, A28C, C30G, A31G
DNA 1: CAATCTGAATTCCGGTCTCCC
DNA 2: TGGTGGCTACGACGGGATT
B3: GCAAGAU (DNA:RNA)
RNA: B1 RNA with A25G, G27A, C29G, C30A, A31U
DNA 1: CAATCTGAATTCCGGTCTCCC
DNA 2: TGGTGGCTACGACGGGATT
B4: CGUGGGA (DNA:RNA)
RNA: B1 RNA with A25C, C26G, G27U, A28G, C29G, C30G
DNA 1: CAATCTGAATTCCGGTCTCCC
DNA 2: TGGTGGCTACGACGGGATT
B5: GUCGGCU (DNA:RNA)
RNA: B1 RNA with A25G, C26U, G27C, A28G, C29G, A31U
DNA 1: CAATCTGAATTCCGGTCTCCC
DNA 2: TGGTGGCTACGACGGGATT
B6: GUUGGUC (DNA:RNA)
RNA: GGGAGACCGGAAUUCAGAUUGUCCGUUGGUCUUAAAUCCCGUCGUAGCCACCA
DNA 1: CAATCTGAATTCCGGTCTCCC
DNA 2: TGGTGGCTACGACGGGATT
B7: UCUAGCC (DNA:RNA)
RNA: B1 RNA with A25U, G27U, C29G, A31C
DNA 1: CAATCTGAATTCCGGTCTCCC
DNA 2: TGGTGGCTACGACGGGATT
B8: AAUUGAG (DNA:RNA)
RNA: B6 RNA with G25A, U26A, G28U, U30A, C31G
DNA 1: CAATCTGAATTCCGGTCTCCC
DNA 2: TGGTGGCTACGACGGGATT
B9: UGACCGC (DNA:RNA)
RNA: B1 RNA with A25U, C26G, G27A, A28C, C30G, A31C
DNA 1: CAATCTGAATTCCGGTCTCCC
DNA 2: TGGTGGCTACGACGGGATT
B10: AUUAACU (DNA:RNA)
RNA: B1 RNA with C26U, G27U, C29A, A31U
DNA 1: CAATCTGAATTCCGGTCTCCC
DNA 2: TGGTGGCTACGACGGGATT
B11: AGUGAAC (DNA:RNA)
RNA: B6 RNA with G25A, U26G, G29A, U30A
DNA 1: CAATCTGAATTCCGGTCTCCC
DNA 2: TGGTGGCTACGACGGGATT
B12: GACGAUG (DNA:RNA)
RNA: B6 RNA with U26A, U27C, G29A, C31G
DNA 1: CAATCTGAATTCCGGTCTCCC
DNA 2: TGGTGGCTACGACGGGATT
B13: CGGGCGA (DNA:RNA)
RNA: B1 RNA with A25C, C26G, A28G, C30G
DNA 1: CAATCTGAATTCCGGTCTCCC
DNA 2: TGGTGGCTACGACGGGATT
B14: GAACUUA (DNA:RNA)
RNA: B6 RNA with U26A, U27A, G28C, G29U, C31A
DNA 1: CAATCTGAATTCCGGTCTCCC
DNA 2: TGGTGGCTACGACGGGATT
B15: UCCUAUA (DNA:RNA)
RNA: B1 RNA with A25U, G27C, A28U, C29A, C30U
DNA 1: CAATCTGAATTCCGGTCTCCC
DNA 2: TGGTGGCTACGACGGGATT
B16: CACUACG (DNA:RNA)
RNA: B1 RNA with A25C, C26A, G27C, A28U, C29A, A31G
DNA 1: CAATCTGAATTCCGGTCTCCC
DNA 2: TGGTGGCTACGACGGGATT
B17: GGUGGUC (DNA:RNA)
RNA: B6 RNA with U26G
DNA 1: CAATCTGAATTCCGGTCTCCC
DNA 2: TGGTGGCTACGACGGGATT
B18: CAUUCUG (DNA:RNA)
RNA: B6 RNA with G25C, U26A, G28U, G29C, C31G
DNA 1: CAATCTGAATTCCGGTCTCCC
DNA 2: TGGTGGCTACGACGGGATT
B19: GUGUACG (DNA:RNA)
RNA: B1 RNA with A25G, C26U, A28U, C29A, A31G
DNA 1: CAATCTGAATTCCGGTCTCCC
DNA 2: TGGTGGCTACGACGGGATT
B20: GGAAAUU (DNA:RNA)
RNA: B6 RNA with U26G, U27A, G28A, G29A, C31U
DNA 1: CAATCTGAATTCCGGTCTCCC
DNA 2: TGGTGGCTACGACGGGATT
B21: AUCUCGG (DNA:RNA)
RNA: B1 RNA with C26U, G27C, A28U, C30G, A31G
DNA 1: CAATCTGAATTCCGGTCTCCC
DNA 2: TGGTGGCTACGACGGGATT
B22: CUAUGUG (DNA:RNA)
RNA: B6 RNA with G25C, U27A, G28U, C31G
DNA 1: CAATCTGAATTCCGGTCTCCC
DNA 2: TGGTGGCTACGACGGGATT
B23: AAGCGCU (DNA:RNA)
RNA: B1 RNA with C26A, A28C, C29G, A31U
DNA 1: CAATCTGAATTCCGGTCTCCC
DNA 2: TGGTGGCTACGACGGGATT
B24: GGAGGAG (DNA:RNA)
RNA: B6 RNA with U26G, U27A, U30A, C31G
DNA 1: CAATCTGAATTCCGGTCTCCC
DNA 2: TGGTGGCTACGACGGGATT
B25: CAUCUAA (DNA:RNA)
RNA: B1 RNA with A25C, C26A, G27U, A28C, C29U, C30A
DNA 1: CAATCTGAATTCCGGTCTCCC
DNA 2: TGGTGGCTACGACGGGATT
B26: AUAAGUC (DNA:RNA)
RNA: B6 RNA with G25A, U27A, G28A
DNA 1: CAATCTGAATTCCGGTCTCCC
DNA 2: TGGTGGCTACGACGGGATT
B27: ACUCCGC (DNA:RNA)
RNA: B1 RNA with G27U, A28C, C30G, A31C
DNA 1: CAATCTGAATTCCGGTCTCCC
DNA 2: TGGTGGCTACGACGGGATT
B28: UCAACGG (DNA:RNA)
RNA: B1 RNA with A25U, G27A, C30G, A31G
DNA 1: CAATCTGAATTCCGGTCTCCC
DNA 2: TGGTGGCTACGACGGGATT
B29: GCCUUCA (DNA:RNA)
RNA: B1 RNA with A25G, G27C, A28U, C29U
DNA 1: CAATCTGAATTCCGGTCTCCC
DNA 2: TGGTGGCTACGACGGGATT
B30: CCUUGAC (DNA:RNA)
RNA: B6 RNA with G25C, U26C, G28U, U30A
DNA 1: CAATCTGAATTCCGGTCTCCC
DNA 2: TGGTGGCTACGACGGGATT
B31: CAAGCAA (DNA:RNA)
RNA: B1 RNA with A25C, C26A, G27A, A28G, C30A
DNA 1: CAATCTGAATTCCGGTCTCCC
DNA 2: TGGTGGCTACGACGGGATT

What follows are binders tested against T1, RBFOX1 RRM (assay: EMSA; HiTS-Eq, 1 nM pool, 10 min; buffer printed only for the single-RNA assays: 10 mM Tris pH 7.5, 150 mM NaCl, 3.4 mM EDTA, 0.001% NP-40, 30 C). Conditions: tags: His6 N-terminal (pET28a); label: 5' 32P.
In short: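 A pool of RNA with 7 randomized nucleotides, 5′-radiolabelled and with DNA-annealed flanks, was equilibrated at 1 nM for 10 min in 50 µL with purified RbFox RRM, wild type or mutant, across increasing protein concentrations. Free RNA was separated by 8% native PAGE, excised, reverse-transcribed, barcoded by PCR and sequenced. Relative association constants were obtained from read-count changes of each RNA species versus the control reaction and normalised to the cognate motif.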

Binder	binding signal
B1	0.003 KA relative to UGCAUGU
B2	0.00735 KA relative to UGCAUGU
B3	0.0115 KA relative to UGCAUGU
B4	0.00274 KA relative to UGCAUGU
B5	0.0193 KA relative to UGCAUGU
B6	0.0255 KA relative to UGCAUGU
B7	0.0097 KA relative to UGCAUGU
B8	0.014 KA relative to UGCAUGU
B9	0.0146 KA relative to UGCAUGU
B10	0.00102 KA relative to UGCAUGU
B11	0.0126 KA relative to UGCAUGU
B12	0.0266 KA relative to UGCAUGU
B13	0.0269 KA relative to UGCAUGU
B14	0.00145 KA relative to UGCAUGU
B15	0.00228 KA relative to UGCAUGU
B16	0.0044 KA relative to UGCAUGU

Binder	binding signal
B17	0.0123 KA relative to UGCAUGU
B18	0.0143 KA relative to UGCAUGU
B19	0.0131 KA relative to UGCAUGU
B20	0.0113 KA relative to UGCAUGU
B21	0.00679 KA relative to UGCAUGU
B22	0.018 KA relative to UGCAUGU
B23	0.00686 KA relative to UGCAUGU
B24	0.0159 KA relative to UGCAUGU
B25	0.0007 KA relative to UGCAUGU
B26	0.00397 KA relative to UGCAUGU
B27	0.00478 KA relative to UGCAUGU
B28	0.00716 KA relative to UGCAUGU
B29	0.00904 KA relative to UGCAUGU
B30	0.0113 KA relative to UGCAUGU
B31	0.00166 KA relative to UGCAUGU
